Measured values: PubChem BioAssay (NCI)
Several values for one entry are separate records, joined by “and”; a condition that tells them apart may be missing. Equal values may be shown once.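 Interpolation was linear, between the two tested concentrations surrounding the appropriate level; five concentrations were tested over 48 hours in 96-well plates. GI50 is the concentration that inhibits growth by half. TGI: total growth inhibition.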

System: NCI-H322M lung
Assay: growth of human tumour cells (NCI), 48 h

Compound	GI50	TGI
Cc1nc(-c2nc(-c3ccc(OC(F)(F)F)cc3)no2)nn1Cc1cccc(N2CCC(S(C)(=O)=O)CC2)c1	> 100 µM	> 100 µM
CC1(Br)CC2OC3(Br)C=CC(C)(O)C2(CC1=O)C3(C)C (stereo unspecified)	–	> 100 µM
CCCn1cc2c(SC)nc(SC)nc2n1	–	> 100 µM
CCOC(=O)Nc1nc2ccc(Br)cc2s1	> 50 µM	> 50 µM
O=C1NC2C(=CC(O)C(O)C2O)c2cc3c(cc21)OCO3 (stereo unspecified)	0.314 µM and 0.254 µM	7.54 µM and 4.97 µM
CC(=O)Oc1ccc2cc(Oc3ccc(Cl)c(Cl)c3)c(=O)oc2c1	–	> 100 µM
CCOC(=O)Cn1c(=O)c2nc(SC)sc2n(-c2ccccc2)c1=S	–	48.3 µM
CCSc1cc2c(cc1O)CC[C@@H]1[C@@H]2CC[C@]2(C)[C@@H](O)CC[C@@H]12	–	35 µM
CC[C@@]1(O)C(=O)OCc2c1cc1n(c2=O)Cc2cc3cccc([N+](=O)[O-])c3nc2-1	4.51 µM	73.3 µM
C[C@]12CC[C@@H]3c4cc(OC(F)F)c(OS(N)(=O)=O)cc4CC[C@H]3[C@@H]1CC[C@@H]2OS(N)(=O)=O	2.12 µM	18.9 µM
O=[N+]([O-])c1ccc(Oc2c(Cl)cc(S(=O)(=O)/N=C(\NO)Nc3ccc(Cl)cc3)cc2Cl)c(Cl)c1	–	28 µM
O=C(NCc1cccnc1)C1COc2cc(-c3cc(=O)c4ccccc4o3)ccc2O1 (stereo unspecified)	–	> 100 µM
CC(C)(C)[Si](C)(C)OC1[C@@H](O[Si](C)(C)C(C)(C)C)[C@@H](CNC(=O)NC(=O)CF)O[C@H]1n1cnc2c(NC(=O)Nc3ccccc3)ncnc21 (stereo partly specified)	> 50 µM	> 50 µM
CCCc1cc(=O)n2c(C(=O)Nc3cccc(C(=O)OCC)c3)c(C(=O)Nc3ccc(F)cc3)sc2n1	134 µM	> 140 µM
COc1cc(C(=O)N2CCN(c3ccccc3)CC2)c2ccccc2n1	0.284 µM	> 100 µM
CC1=NN(c2ccc(S(=O)(=O)O)cc2)C(=O)/C1=C/c1ccc(Cl)cc1	–	> 100 µM
CCC(O)C1Cc2c(C)cc3c(c2O1)C(=O)c1ccccc1C3=O (stereo unspecified)	–	> 100 µM
CC(Oc1ccccc1Cl)C(=O)NN1C(=O)CC(=O)NC1=S (stereo unspecified)	–	> 100 µM
COC(=O)C1=COC(C)C2CN3CCc4c([nH]c5cc(OC)c(OC)cc45)C3CC12 (stereo unspecified)	–	> 100 µM
CC(=O)C1Cn2c(=O)c3cc4ccccc4cc3c(=O)n2C=C1C (stereo unspecified)	–	> 100 µM
O=c1c2ccccc2nc(/C=C(\O)c2ccncc2)n1-c1ccc(Cl)cc1	–	> 100 µM
Cc1cc(Nc2ncc3c(n2)N(C)C(=O)N(c2cc(NC(=O)c4cccc(C(F)(F)F)c4)ccc2C)C3)n(C)n1	0.0278 µM	0.118 µM
CC(C)(C)OC(=O)NC(Cc1ccc(O)cn1)C(=O)O (stereo unspecified)	–	> 100 µM
CCCCCCn1c(-c2ccc(C(=O)O/N=C(\N)c3ccc4ccccc4c3)cc2)nc(-c2ccccc2)c1-c1ccccc1	> 100 µM	> 100 µM

Compound	GI50	TGI
N#C[Se]CCN1C(=O)C2C(C1=O)[C@H]1C=C[C@@H]2S1 (stereo partly specified)	1.75 µM	5.5 µM
S=C(NCCNC(=S)[S][Sn]([c]1ccccc1)([c]1ccccc1)[c]1ccccc1)[S][Sn]([c]1ccccc1)([c]1ccccc1)[c]1ccccc1	0.0802 µM	0.16 µM
O=C(CCCN1CCC2(CC1)CC(=O)N(N1CCOCC1)C2=O)c1ccc(F)cc1	–	> 100 µM
CC1(C)C2CC(O)C1CCC2=O (stereo unspecified)	–	> 100 µM
O=C(NNC1=NCCCCN1)Nc1ccc(Cl)cc1	–	> 100 µM
OC[P+](CO)(CO)C12CC3CC(CC(C3)C1)C2	–	> 100 µM
Clc1ccc(CCn2cncn2)cc1	–	> 100 µM
[N-]=[N+]=Nc1c(Cl)c(Cl)nc2ccccc12	–	75.8 µM
COc1ccc(-c2c3c(n(C4OC(COC(C)=O)C(OC(C)=O)C(OC(C)=O)C4OC(C)=O)c(=S)c2C#N)CCC3)cc1 (stereo unspecified)	–	> 100 µM
CCOP12(OCC)NC(=O)OC1(C(F)(F)F)c1ccccc1O2 (stereo unspecified)	–	> 100 µM
C=CCN1COc2c(cc3c4c(cccc24)C(=O)O3)C1	–	50.8 µM
NC(=O)/C(=N\NC(=O)C[n+]1ccccc1)C1NC(=O)NC1=O (stereo unspecified)	–	> 100 µM
CC1(C)CC(=O)C2=C(C1)NC1=C(C2)C(=O)CC(C)(C)C1	–	> 100 µM
N=C(N)SCc1c2ccccc2c(CSC(=N)N)c2ccccc12	12.5 µM	30.9 µM
O=C(OC1CCC2OOC1O2)c1ccc([N+](=O)[O-])cc1 (stereo unspecified)	–	> 100 µM
O=C(CCCN1CCC(Nc2ccccc2)(c2nnnn2C2CCCCC2)CC1)c1ccc(F)cc1	–	13.7 µM
COc1ccc2c(c1)oc(=O)c1cc(OC)ccc12	> 100 µM	> 100 µM
CC1=CCCC2C1(C)CCC(C)C2(C)Cc1cc(O)ccc1O (stereo unspecified)	11.3 µM	24.5 µM and 21.6 µM
CC(=O)O[C@@H]1C(=O)N(c2ccccc2)[C@@H]1c1cc2ccccc2c2ccccc12	–	> 100 µM
NC(N)=NC(N)=Nc1cnccn1	–	> 100 µM
COC(=O)c1ccccc1N1C(=O)Cc2ccccc2C1=O	–	> 100 µM
C=C1CCCC(C)(C)C1CCC1(C)CCC(C(C)C(=O)OC)OO1 (stereo unspecified)	–	> 25 µM
COC(=O)C1=C(OC(=O)c2ccccc2)C(C(=O)OC)[C@@]2(O)[C@@H](C(=O)OC)[C@H](C)C[C@@H]1[C@@H]2C(=O)OC (stereo partly specified)	–	97.1 µM
CC1=NNC(=O)C1C1CC(c2c[nH]c3ccccc23)=NN(C(N)=O)C1=O (stereo unspecified)	–	> 100 µM

Compound	GI50	TGI
CCCNCC(=O)O[C@]1(CC)C(=O)OCc2c1cc1n(c2=O)Cc2cc3ccccc3nc2-1	–	5.85 µM
CCOC(=O)C1(N)CCc2[nH][nH]c(=O)c2C1 (stereo unspecified)	–	> 100 µM
O=C(Nc1cccc(C(F)(F)F)c1)C(=O)C1NC(=S)NC1=O (stereo unspecified)	–	> 100 µM
O=C(/C=C/c1ccc(C(F)(F)F)cc1)c1c([O-])on[n+]1-c1ccccc1	–	28 µM
Cc1ccc2c(c1)c(Sc1ccc(C(=O)NO)cc1)c1n2CN(C)CC1	2.31 µM	9.66 µM
N=N/C(=C\c1c(O)[nH]c2ccccc12)c1ccccc1	–	> 100 µM
N#CC1=C(c2ccccc2)C(=C2Nc3ccccc3N2)C2S/C(=C\c3ccccc3)C(=O)N2C1=N (stereo unspecified)	–	10.6 µM
CCOC(=O)CCSc1nc2ccc(I)cc2c(=O)n1Cc1ccccc1	–	> 100 µM
N#Cc1c(N)n2c(nc1=Nc1ccc(Cl)cc1)sc1cc(Cl)ccc12	28.1 µM	> 100 µM
C/C=C1\CC2C(=O)CCC2C2c3ccccc3OC12 (stereo unspecified)	–	> 100 µM
O=C(CC(C(=O)c1cccs1)c1ccsc1)c1ccccc1 (stereo unspecified)	–	> 100 µM
O=c1c2ccccc2nc2n1-c1ccccc1SC2	–	> 100 µM
Cc1c(Cl)nc(Cl)nc1Cl	–	5.71 µM
CCC1CCN=C(NS(=O)(=O)c2cc(C)c(Cl)cc2S)N1 (stereo unspecified)	–	> 100 µM
N#Cc1ccc(N2CCOCC2)cc1	–	> 100 µM
COC(=O)c1ccccc1NC(=NC1CCCCCC1)NS(=O)(=O)c1ccc(C)cc1	–	> 100 µM
COc1ccc(C2=C(N)c3c(Cl)cccc3C2=O)cc1	–	> 100 µM
O=c1/c(=C/c2ccc([N+](=O)[O-])o2)sc2n1[C@@H](c1ccc(Cl)cc1)C=C(c1cc(F)c(Cl)cc1Cl)N=2	–	36.7 µM
NC(=O)c1cccc(N=c2oc3ccc(Br)cc3cc2-c2nc3ccccc3[nH]2)c1	–	29 µM
N/C(=N/N=C/c1ccccc1)N/N=C\c1ccccc1	14.3 µM	> 100 µM
O=c1cc(CSc2c(-c3ccccc3)c(=O)n(-c3ccccc3)c(=S)n2-c2ccccc2)[nH]c(=O)[nH]1	–	> 100 µM
CCN(CC)CCN(C(=Nc1ccccc1)N1CCCCC1)c1ccccc1	–	62.5 µM
C=C/C(C)=C\CC1[C@](C)(O)CC[C@H]2C(C)(C)C(O)CC[C@]12C (stereo partly specified)	–	> 100 µM
C#CCN(Cc1nc2cc(C(F)(F)F)ccc2nc1-c1ccccc1)c1ccc(C)cc1	19.8 µM	> 45.7 µM
